The campaign covered roughly 310,000 compounds. About 2,200 (0.71%) showed an effect of 50% or more. Effects have a minus sign here. The list shows a part of the results.

human ether-à-go-go-related gene (hERG) potassium channel, sequence (Q12809 whole entry, looked up): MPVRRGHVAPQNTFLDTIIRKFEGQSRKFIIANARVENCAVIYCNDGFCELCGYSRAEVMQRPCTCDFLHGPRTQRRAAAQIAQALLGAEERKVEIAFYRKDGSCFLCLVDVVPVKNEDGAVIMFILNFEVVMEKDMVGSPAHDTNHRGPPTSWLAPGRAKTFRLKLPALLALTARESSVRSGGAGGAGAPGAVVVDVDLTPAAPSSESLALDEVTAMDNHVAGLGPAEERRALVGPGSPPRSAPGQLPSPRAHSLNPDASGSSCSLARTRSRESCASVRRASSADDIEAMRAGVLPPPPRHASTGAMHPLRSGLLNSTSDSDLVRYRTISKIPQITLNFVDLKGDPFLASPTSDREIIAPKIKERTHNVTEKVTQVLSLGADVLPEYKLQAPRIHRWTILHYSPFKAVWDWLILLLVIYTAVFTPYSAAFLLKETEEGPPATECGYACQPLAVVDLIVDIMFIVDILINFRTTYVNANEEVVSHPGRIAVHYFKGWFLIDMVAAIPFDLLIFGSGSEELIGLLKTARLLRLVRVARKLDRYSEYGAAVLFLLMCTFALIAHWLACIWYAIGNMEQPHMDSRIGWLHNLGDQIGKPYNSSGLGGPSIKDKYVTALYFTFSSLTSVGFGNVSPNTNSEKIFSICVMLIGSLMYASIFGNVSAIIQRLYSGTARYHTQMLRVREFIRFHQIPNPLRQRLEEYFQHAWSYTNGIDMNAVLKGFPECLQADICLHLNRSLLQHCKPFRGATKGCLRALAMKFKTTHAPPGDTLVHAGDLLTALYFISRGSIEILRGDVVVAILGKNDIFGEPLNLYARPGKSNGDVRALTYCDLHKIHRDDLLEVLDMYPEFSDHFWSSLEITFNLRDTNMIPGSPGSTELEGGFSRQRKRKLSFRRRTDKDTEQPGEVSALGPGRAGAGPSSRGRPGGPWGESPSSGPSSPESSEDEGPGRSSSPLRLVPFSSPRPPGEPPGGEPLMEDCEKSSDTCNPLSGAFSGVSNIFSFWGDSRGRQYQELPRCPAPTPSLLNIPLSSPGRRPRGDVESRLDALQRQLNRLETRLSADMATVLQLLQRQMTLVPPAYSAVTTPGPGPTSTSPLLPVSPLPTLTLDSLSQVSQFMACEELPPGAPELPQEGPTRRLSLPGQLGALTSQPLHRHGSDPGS

The experiment concerns the target human ether-à-go-go-related gene (hERG) potassium channel (human, UniProt Q12809). Description: primary screen, population patch clamp on CHO cells stably expressing hERG.
On to `COc1ccccc1C(=O)Nc1ccc(S(=O)(=O)NC2=NCCCCC2)cc1`, for which the “hERG current change (%, negative = inhibition) at 1uM” value was determined as 1.87%.

Turning to `O=C(CSc1nnc(-c2ccccc2)c(-c2ccccc2)n1)Nc1ncc(Cl)cc1Cl`, the “hERG current change (%, negative = inhibition) at 1uM” value is recorded as 4.86%.

Take `CC(C)CN(CCNC(=O)CN1C(=O)CSc2ccc(S(=O)(=O)N3CCOCC3)cc21)CC(C)C`: the “hERG current change (%, negative = inhibition) at 1uM” value turned out to be 3.98%.

`CC(OC(=O)c1cc(=O)[nH]c2ccccc12)C(=O)Nc1ccccc1F` (centres unmarked): the “hERG current change (%, negative = inhibition) at 1uM” value is listed as 7.73%.

On to `COc1cccc(-n2c(CNc3ccc(F)cc3)nnc2SCC(N)=O)c1`, for which the “hERG current change (%, negative = inhibition) at 1uM” value was found to be 4.77%.

For `CCc1c(C#N)c(SCCC(=O)Nc2ccc(C)cc2)nc2c1C(=O)CC(C)(C)C2`, the “hERG current change (%, negative = inhibition) at 1uM” value came to 12.4%.

For `COc1ccc(NC(=S)N(CCCN2CCCC(C)C2)Cc2cccs2)cc1` (centres unmarked), the “hERG current change (%, negative = inhibition) at 1uM” value is recorded as -62.4%.

For `CCC1CCc2c(sc(NC(=O)C3c4ccccc4Oc4ccccc43)c2C(N)=O)C1` (centres unmarked), the “hERG current change (%, negative = inhibition) at 1uM” value is given as 0.625%.

Turning to `O=C(Nc1ccccc1Cl)C1CCN(S(=O)(=O)c2cccc3nonc23)CC1`, the “hERG current change (%, negative = inhibition) at 1uM” value came out at 13.9%.

On to `COc1ccc(Cl)cc1NC(=O)CN(C)C(=O)c1cccc(-n2cnnn2)c1`, for which the “hERG current change (%, negative = inhibition) at 1uM” value is reported as 3.14%.

Regarding `CCCC[C@@H]1CCCO[C@@](C(=O)NCc2ccc(C)o2)(C(F)(F)F)C1`, the “hERG current change (%, negative = inhibition) at 1uM” value amounted to 7.81%.

On to `COc1ccccc1CNc1ncnc2cc(OC)c(OC)cc12`, for which the “hERG current change (%, negative = inhibition) at 1uM” value was -2.09%.

As to `CCOc1ccccc1C(=O)Nc1ccc2nc3n(c(=O)c2c1)CCCCC3`, the “hERG current change (%, negative = inhibition) at 1uM” value was 9.28%.

Consider `Cc1ccc(NNS(=O)(=O)c2ccc(C)cc2)cc1`, for which the “hERG current change (%, negative = inhibition) at 1uM” value is -6.46%.

On to `O=C(NCc1ccc(F)cc1)c1cc2c(cc1Cl)N1CCCCCC1=NS2(=O)=O`, for which the “hERG current change (%, negative = inhibition) at 1uM” value was 6.81%.

Turning to `CC/C(O)=C1\C(=O)CC(c2ccccc2)CC1=NC(C)C` (centres unmarked), the “hERG current change (%, negative = inhibition) at 1uM” value turned out to be 9.11%.

With `COc1ccc(NC(=O)Nc2nnc(CC(=O)NCc3ccccc3)s2)cc1`, the “hERG current change (%, negative = inhibition) at 1uM” value came out at 8.48%.

As for `CCOc1ccc(C2c3c(oc4cc(C)c(C)cc4c3=O)C(=O)N2CCCN2CCOCC2)cc1` (centres unmarked), the “hERG current change (%, negative = inhibition) at 1uM” value is -1.14%.

Regarding `CCC1(CC)Cc2ccccc2-c2nc(NCCCO)[nH]c(=O)c21`, the “hERG current change (%, negative = inhibition) at 1uM” value is 11.8%.

As for `COc1ccc(Br)cc1CN1CCN(S(=O)(=O)Cc2ccccc2)CC1`, the “hERG current change (%, negative = inhibition) at 1uM” value amounted to 7.09%.

For `Cc1[nH]n(-c2ccc([N+](=O)[O-])cc2)c(=O)c1C=NCCN1CCN(C(=O)C(C)C)CC1`, the “hERG current change (%, negative = inhibition) at 1uM” value is -19.5%.

Consider `Cc1ccccc1NC(=O)CCC(=O)N/N=C/c1ccncc1`, for which the “hERG current change (%, negative = inhibition) at 1uM” value stood at 21.4%.

Take `C=CCNc1ncnc2c1cnn2-c1ccc(Cl)cc1`: the “hERG current change (%, negative = inhibition) at 1uM” value was found to be 3.5%.

Source of the values: PMC4336329 (PLoS ONE, 2015).
